Molecules are shown by their SMILES. Among all 310,000 compounds or so, about 2,200 (0.71%) showed an effect of 50% or more. Effects have a minus sign here. Some of the results follow.

The target of the experiment is human ether-à-go-go-related gene (hERG) potassium channel (human, UniProt Q12809). As to the kind of experiment: primary screen, population patch clamp on CHO cells stably expressing hERG.
Sequence of human ether-à-go-go-related gene (hERG) potassium channel (Q12809 whole entry, looked up): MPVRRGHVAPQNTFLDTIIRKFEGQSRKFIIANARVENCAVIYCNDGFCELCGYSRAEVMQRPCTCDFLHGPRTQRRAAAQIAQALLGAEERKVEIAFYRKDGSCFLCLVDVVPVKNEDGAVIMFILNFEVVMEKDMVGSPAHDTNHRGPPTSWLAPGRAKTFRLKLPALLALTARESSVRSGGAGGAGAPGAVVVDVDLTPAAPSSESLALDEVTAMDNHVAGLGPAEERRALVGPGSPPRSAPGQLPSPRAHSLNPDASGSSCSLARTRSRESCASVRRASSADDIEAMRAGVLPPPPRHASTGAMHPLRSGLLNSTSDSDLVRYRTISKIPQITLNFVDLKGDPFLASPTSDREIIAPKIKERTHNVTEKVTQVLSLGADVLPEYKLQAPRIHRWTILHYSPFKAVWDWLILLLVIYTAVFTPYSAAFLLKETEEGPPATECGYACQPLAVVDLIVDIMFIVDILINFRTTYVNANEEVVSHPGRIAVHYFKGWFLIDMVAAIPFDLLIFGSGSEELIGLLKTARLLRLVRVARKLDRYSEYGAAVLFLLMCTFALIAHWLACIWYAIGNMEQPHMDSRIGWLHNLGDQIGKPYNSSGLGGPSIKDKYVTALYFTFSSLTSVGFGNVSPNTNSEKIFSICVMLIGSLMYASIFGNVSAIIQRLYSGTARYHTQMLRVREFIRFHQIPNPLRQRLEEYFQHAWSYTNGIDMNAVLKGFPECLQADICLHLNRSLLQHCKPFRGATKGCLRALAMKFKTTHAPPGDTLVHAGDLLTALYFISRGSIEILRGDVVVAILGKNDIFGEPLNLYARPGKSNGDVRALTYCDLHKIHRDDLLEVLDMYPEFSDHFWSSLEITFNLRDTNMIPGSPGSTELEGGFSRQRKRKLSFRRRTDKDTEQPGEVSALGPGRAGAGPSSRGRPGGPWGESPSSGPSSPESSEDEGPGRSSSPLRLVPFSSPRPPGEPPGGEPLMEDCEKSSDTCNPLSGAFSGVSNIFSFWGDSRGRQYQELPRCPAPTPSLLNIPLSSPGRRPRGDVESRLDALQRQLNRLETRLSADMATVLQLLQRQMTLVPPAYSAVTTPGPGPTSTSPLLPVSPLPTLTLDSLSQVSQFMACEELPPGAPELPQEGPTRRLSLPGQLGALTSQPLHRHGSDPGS
As to `CCOC(=O)c1c(NC(=O)C2CCN(S(=O)(=O)c3ccc(Cl)cc3)CC2)sc2c1CCCC2`, the “hERG current change (%, negative = inhibition) at 1uM” value came out at 7.04%.

With `COc1cc(/C=N/NC(=O)c2ccncc2)ccc1OCC(=O)Nc1cccc([N+](=O)[O-])c1`, the “hERG current change (%, negative = inhibition) at 1uM” value was found to be 18.7%.

For `CSC(=S)N/N=C(\C)c1ccccc1`, the “hERG current change (%, negative = inhibition) at 1uM” value is 12%.

For the compound `CCOc1ccc(-c2nc(CN3CCCCC3CCn3cccn3)c(C)o2)cc1` (stereo not shown), the “hERG current change (%, negative = inhibition) at 1uM” value was -24.9%.

Take `O=C(O)CCN(CCC(=O)O)S(=O)(=O)c1ccccc1`: the “hERG current change (%, negative = inhibition) at 1uM” value is 10.7%.

As for `Cc1ccc(F)cc1NC(=O)CSCc1c(C)noc1C`, the “hERG current change (%, negative = inhibition) at 1uM” value was 5.95%.

As to `CC(C)c1cc(CNC(=O)C2CCC(=O)N(Cc3ccccc3F)C2)on1` (stereo not shown), the “hERG current change (%, negative = inhibition) at 1uM” value is 14.8%.

Consider `CCCc1c(C(=O)N/N=C(/C)c2ccncc2)nnn1-c1nonc1N`, for which the “hERG current change (%, negative = inhibition) at 1uM” value came to 11.4%.

On to `CCOCCCNC(=O)c1ccc2c(=O)n(Cc3ccc4c(c3)OCO4)c(=S)[nH]c2c1`, for which the “hERG current change (%, negative = inhibition) at 1uM” value came out at 23.3%.

In the case of `CC1CC(N(C(=O)c2ccco2)c2ccccc2)c2ccccc2N1` (stereo not shown), the “hERG current change (%, negative = inhibition) at 1uM” value came out at 11.7%.

`CCc1cccc(OCC(=O)Nc2ccccc2N2CCCC2)c1`: the “hERG current change (%, negative = inhibition) at 1uM” value was 5.49%.

`Cc1cc(NC(=O)C(C)Oc2ccccc2)no1` (stereo not shown): the “hERG current change (%, negative = inhibition) at 1uM” value was determined as 14%.

For the compound `CCOC(=O)c1ccc(NS(=O)(=O)c2cc(C)ccc2OC)cc1`, the “hERG current change (%, negative = inhibition) at 1uM” value is reported as -11.5%.

Consider `Clc1ccc(-n2nnnc2SCc2cn3ccccc3n2)cc1`, for which the “hERG current change (%, negative = inhibition) at 1uM” value came out at 14.9%.

Consider `COCCC(=O)Nc1ccc2c(c1)CN(C(=O)CCOC)CC2`, for which the “hERG current change (%, negative = inhibition) at 1uM” value is listed as 11.3%.

Consider `CN(c1ccc(C(=O)N2CCCCCC2)cc1)S(=O)(=O)c1ccc(Cl)cc1`, for which the “hERG current change (%, negative = inhibition) at 1uM” value was -8.67%.

As for `O=C(/C=C/c1ccco1)N1CCN(S(=O)(=O)/C=C/c2ccccc2)CC1`, the “hERG current change (%, negative = inhibition) at 1uM” value was 0.172%.

As to `Cc1cn2c(=O)c(C(=O)NCc3ccc4c(c3)OCO4)cnc2s1`, the “hERG current change (%, negative = inhibition) at 1uM” value is given as 10.7%.

With `OC(COc1ccccc1)CN1CCOCC1` (stereo not shown), the “hERG current change (%, negative = inhibition) at 1uM” value was found to be 14.3%.

On to `Cc1ccc(NC(=O)Cc2nc(COC(=O)C(C)NS(=O)(=O)c3ccc(C)cc3)cs2)cc1` (stereo not shown), for which the “hERG current change (%, negative = inhibition) at 1uM” value is listed as -1.08%.

With `CCN(C(=O)CSc1nnc(C)n1-c1ccccc1)C1CCS(=O)(=O)C1` (stereo not shown), the “hERG current change (%, negative = inhibition) at 1uM” value came to 13%.

With `COc1ccc(NS(=O)(=O)c2ccc(OC)c(NC(=O)CCC3CCCC3)c2)cc1`, the “hERG current change (%, negative = inhibition) at 1uM” value is recorded as 0.976%.

In the case of `O=C(O)CSc1ncnc2nc[nH]c12`, the “hERG current change (%, negative = inhibition) at 1uM” value stood at 8.63%.

Turning to `CCOC(=O)N1CCN(C(=O)COC(=O)Cc2ccc(OC)cc2)CC1`, the “hERG current change (%, negative = inhibition) at 1uM” value stood at 11.7%.

In the case of `CC1CCCC(C)N1CC(O)COCC1COc2ccccc2O1.Cl` (stereo not shown), the “hERG current change (%, negative = inhibition) at 1uM” value is listed as -1.88%.

(Values after paper PMC4336329 (PLoS ONE, 2015).)
